Experimental data taken from US8512970B2, “Rapid bioluminescence detection assay” (The Secretary of State for Health, priority 2009, dated 2013).

Test: Stability of recombinant AK enzymes after 80° C. for 30 minutes in crude E. coli lysate
Settings: 80° C. for 30 minute, 10-fold serial dilutions from 1 mg/ml total cellular protein

B1: T. maritima: Adenylate kinase (AK) from Thermotoga maritima, monomer; reporter kinase (protein, UniProt Q9X1I8 1-220, looked up)
Adenylate kinase: MMAYLVFLGPPGAGKGTYAKRLQEITGIPHISTGDIFRDIVKKENDELGKKIKEIMERGELVPDELVNEVVKRRLSEKDCERGFILDGYPRTVAQAEFLDGFLKTQNKELTAAVLFEVPEEVVVQRLTARRICPKCGRIYNLISLPPKEDELCDDCKVKLVQREDDKEETVRHRYKVYLEKTQPVIDYYDKKGILKRVDGTIGIDNVIAEVLKIIGWSDK
stability of recombinant enzyme: significantly greater stability than the other enzymes tested
